# In PubChem BioAssay AID588795 (National Center for Advancing Translational Sciences (NCATS), 2011):
# Screen size: about 390,000 compounds; about 1,400 (0.36%) were called active. Inconclusive results, whose numbers are uncertain, are shown with a selection of clear calls. Calls come from the whole dose curve; as a rule, active = well fitted inhibition curve with a large enough effect; inconclusive = small, poorly fitted or top-dose-only effect; inactive = no such curve, though single readings can be large or run the other way. Potencies of inconclusive entries are doubtful fits and often do not repeat.
# Biological target: Flap endonuclease 1 (Homo sapiens) (UniProt P39748)
# Experiment: qHTS Assay for the Inhibitors of Human Flap endonuclease 1 (FEN1). Note: nearly all actives have a fitted effect of over 65% in size.
# Details: Recombinant FEN1 flap cleavage, fluorescence, 15 min; series mostly up to 114 µM; activity change, negative = inhibition: at the top concentration
# Procedure, shortened: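 Recombinant FEN1 (10 nM) was preincubated with pin-transferred compounds for 15 min at room temperature, then flap DNA substrate (50 nM final) was added. Plates were read at 0 and 15 min, and normalized concentration–response data were fitted to a four-parameter Hill equation.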
# % is set by controls: 0 for no effect and ±100 for the full control effect; potency is the fitted concentration of half-maximal effect; tags give direction and shape of the fitted curve.
# UniProt P39748, sequence (P39748 whole entry, looked up): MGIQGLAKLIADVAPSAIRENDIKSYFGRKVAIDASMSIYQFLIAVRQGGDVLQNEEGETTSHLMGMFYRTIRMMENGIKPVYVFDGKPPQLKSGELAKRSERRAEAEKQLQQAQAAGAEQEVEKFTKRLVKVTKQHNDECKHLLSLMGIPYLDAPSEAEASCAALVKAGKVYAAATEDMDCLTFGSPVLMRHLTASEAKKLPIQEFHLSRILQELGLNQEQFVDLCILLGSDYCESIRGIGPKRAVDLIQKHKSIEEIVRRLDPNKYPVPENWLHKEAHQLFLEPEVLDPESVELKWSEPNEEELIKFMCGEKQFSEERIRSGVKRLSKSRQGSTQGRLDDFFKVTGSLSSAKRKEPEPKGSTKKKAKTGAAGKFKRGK
Structure (SMILES),Potency,"activity change, negative = inhibition"
Cc1nc(N)sc1C(=O)N/N=C/c1c[nH]c2ccccc12,"inconclusive: 89.1 µM [inhibitor, partial curve, poor fit]",–
CCN1/C(=C/C=C/c2oc3ccc4ccccc4c3[n+]2CC)Oc2ccc3ccccc3c21,"inconclusive: 70.8 µM [inhibitor, partial curve, poor fit]",–
O=C(O)C(Cc1ccccc1)N1C(=O)/C(=C/C=C/c2ccco2)SC1=S (stereo unspecified),active: 11.2 µM,–
COC1=CC(=O)C(C2CC(=O)c3c(O)cc(O)cc3O2)=CC1=O (stereo unspecified),active: 50.1 µM,–
Cc1ccc(-n2ncc3c(N(CC(C)C)CC(C)C)ncnc32)c(C)c1,"inconclusive: 89.1 µM [inhibitor, partial curve, poor fit]",–
C[C@H](NC(=O)c1nc[nH]c1C(=O)NCC(=O)OCc1ccccc1)C(=O)OCc1ccccc1,"inconclusive: 50.1 µM [inhibitor, partial curve, poor fit]",–
Cc1cccc(N=C2NC(=O)/C(=C/C=C/c3ccco3)S2)c1C,active: 44.7 µM,–
COC(=O)COc1ccc(S(=O)(=O)NCCC2=CCCCC2)cc1C,–,inactive: -5.02%
Cc1[nH]c2ccccc2c1/C=N/NC(=O)c1ccc(N)cc1,–,inactive: -32.2%
CCCCN(C)CC(O)Cn1cc(/C=C/C(=O)c2ccc(C)cc2)c2ccccc21 (stereo unspecified),"inconclusive: 50.1 µM [inhibitor, partial curve]",–
CCN(CC)S(=O)(=O)c1ccc(N/N=C/c2ccccc2OCC(=O)O)c([N+](=O)[O-])c1,"inconclusive: 50.1 µM [inhibitor, partial curve, poor fit]",–
CCOc1ccc2nc(NC(=O)c3ccccc3)sc2c1,–,inactive: -11.3%
COc1cccc(-c2coc3cc4oc(=O)c(CC(=O)O)c(C)c4cc23)c1,"inconclusive: 17.8 µM [inhibitor, full curve]",–
CCOc1ccccc1CNC(=O)CCCN1C(=O)c2cccnc2Oc2ccc(Cl)cc21,–,inactive: -10.8%
O=C(Nc1ccccc1Sc1ccccc1)c1cnn2c1NC(=C1CC1)C=C2C(F)(F)F,"inconclusive: 50.1 µM [inhibitor, partial curve, poor fit]",–
CCn1c(=O)c2sccc2n2c(CCC(=O)NCc3ccc(Cl)cc3)nnc12,–,inactive: -1.6%
COc1ccc(-c2nc3ccccc3s2)cc1NC(=O)COc1cccc(C)c1,"inconclusive: 89.1 µM [inhibitor, single point]",–
O=C(Nc1ccc(OC(F)(F)F)cc1)C1CCCCN1S(=O)(=O)c1ccccc1 (stereo unspecified),"inconclusive: 44.7 µM [inhibitor, partial curve, poor fit]",–
COc1cc2c(NC3CCN(C)CC3)nc(N3CCCN(C)CC3)nc2cc1OCc1ccccc1,active: 22.4 µM,–
Cc1ccccc1-c1cccc([C@@H]2C[C@H]3[C@H](CON3C)CN2S(=O)(=O)c2ccccc2C)c1,"inconclusive: 79.4 µM [inhibitor, partial curve, poor fit]",–
CCc1cc2c(cc3c(=O)n(CC(=O)NC4CCCCC4)ncn32)s1,–,inactive: -3.74%

Structure (SMILES),Potency,"activity change, negative = inhibition"
O=C1c2ccccc2-c2onc3ccc(NCc4ccco4)c1c23,active: 8.91 µM,–
CCCC/C=C/[C@@H](c1ccccc1)C1COC(=O)CC1O (stereo partly specified),–,inactive: -6.61%
C#CCOCCOCCOCCNc1nc(N2CCN(C(=O)[C@H](Cc3cc4ccccc4[nH]3)n3cc([C@@H](N)Cc4ccc(O)cc4)nn3)CC2)nc(N2CCN(C(=O)[C@H](Cc3cc4ccccc4[nH]3)n3cc([C@@H](N)CC(C)C)nn3)CC2)n1,"inconclusive: 79.4 µM [inhibitor, partial curve]",–
CN(C)c1ccc(/C=C/c2cc[n+](C)cc2)cc1,"inconclusive: 79.4 µM [inhibitor, single point]",–
CC1(C)CCC(c2ccc(Cl)cc2)=C(CN2CCN(c3ccc(C(=O)NS(=O)(=O)c4ccc(N[C@H](CCN5CCOCC5)CSc5ccccc5)c(S(=O)(=O)C(F)(F)F)c4)cc3)CC2)C1,"inconclusive: 89.1 µM [inhibitor, single point]",–
C#Cc1ccc([C@@H]2C=C(C(=O)OCC=C)O[C@H](OCCCCO)C2)cc1,"inconclusive: 35.5 µM [inhibitor, single point]",–
C#CCOCCOCCOCCNc1nc(N2CCN(C(=O)[C@H](Cc3cc4ccccc4[nH]3)n3cc([C@@H](N)C(C)CC)nn3)CC2)nc(N2CCN(C(=O)[C@H](CCCCN)n3cc([C@@H](N)CC(C)C)nn3)CC2)n1 (stereo partly specified),"inconclusive: 79.4 µM [inhibitor, single point]",–
CCc1ccc(-c2cc(C(F)(F)F)n3nc(C(=O)Nc4c(C)nn(Cc5ccccc5Cl)c4C)cc3n2)s1,"inconclusive: 89.1 µM [inhibitor, partial curve, poor fit]",–
CCCN(CCC)CCNC(=O)c1cc2c(=O)n(C)c3ccccc3c2n1C,"inconclusive: 20 µM [inhibitor, partial curve, poor fit]",–
COc1cc(NC(=O)c2cc([N+](=O)[O-])ccc2NC(=O)CNCc2ccccn2)cc(OC)c1,"inconclusive: 79.4 µM [inhibitor, partial curve]",–
CCCN(C(=O)COc1cc(=O)n(CC)c2ccccc12)c1ccc(C(C)C)cc1,–,inactive: -23.3%
CCOc1ccc(/C=C2\SC(=S)N(NS(=O)(=O)c3ccc(C)cc3)C2=O)cc1OC,–,inactive: -1.82%
Cc1ccc(-c2nc(C(=O)NCC3CCCO3)cc3c2[nH]c2ccccc23)cc1 (stereo unspecified),"inconclusive: 70.8 µM [inhibitor, partial curve, poor fit]",–
O=C(O)c1ccc2c(=O)n3c(nc2c1)/C(=C/c1ccc(Cl)c(Cl)c1)CC3,"inconclusive: 17.8 µM [inhibitor, partial curve, poor fit]",–
CC(C)(C)c1ccc(C2=NC(C)(C)N(CC(=O)Nc3ccc(F)c(F)c3)C2=O)cc1,–,inactive: 1.25%
Cc1ccc(-c2nnc(Nc3ccc(OCC(N)=O)cc3)c3ccccc23)cc1S(=O)(=O)N(C)C,"inconclusive: 70.8 µM [inhibitor, partial curve, poor fit]",–
C[S+](C)CC(=O)c1ccc2ccccc2c1,–,inactive: -25.8%
CCCCCCCCC1=NCCc2c1[nH]c1ccccc21,–,inactive: 0.892%
Cc1ccc(C)c(OCC(O)CN2CCN(CCN3C(=O)c4cccc5cccc(c45)C3=O)CC2)c1 (stereo unspecified),"inconclusive: 44.7 µM [inhibitor, partial curve]",–
Cc1nc2ccccc2c2oc(C(=O)NCCCN3CCC(C)CC3)cc12,"inconclusive: 20 µM [inhibitor, full curve]",–
CCCCNC(=O)N1CCN(c2ccnc3cc(Cl)ccc23)CC1,"inconclusive: 31.6 µM [inhibitor, partial curve, poor fit]",–

Structure (SMILES),Potency,"activity change, negative = inhibition"
Cc1cc(C)c([N+](=O)[O-])cc1-c1ccc(/C=N/c2c(-c3ccco3)nc3ccccn23)o1,"inconclusive: 56.2 µM [inhibitor, partial curve, poor fit]",–
COc1cccc(Cn2cc(-c3cccc(C(F)(F)F)c3)nn2)c1,"inconclusive: 44.7 µM [inhibitor, partial curve, poor fit]",–
CCN(CC)CCNC(=O)c1cc2cc3ccc(OC)cc3nc2o1,"inconclusive: 79.4 µM [inhibitor, partial curve, poor fit]",–
O=C(N/N=C/C=C\c1ccco1)c1ccccn1,"inconclusive: 39.8 µM [inhibitor, partial curve, poor fit]",–
CCCn1c(C(C)Nc2nc(-c3ccc(C)cc3)cs2)nc2ccccc21 (stereo unspecified),"inconclusive: 79.4 µM [inhibitor, partial curve, poor fit]",–
CCOc1ccc(C(c2c(C)[nH]n(-c3ccccc3)c2=O)c2c(C)[nH]n(-c3ccccc3)c2=O)cc1OC,"inconclusive: 11.2 µM [inhibitor, partial curve, poor fit]",–
COc1cccc(/C=C2\SC(=S)N(N3C(=O)CCCC3=O)C2=O)c1,–,inactive: 1.8%
Cc1nn(CCc2nn[nH]n2)c2nc(-c3ccc(C4CCCCC4)cc3)cc(C(F)(F)F)c12,"inconclusive: 56.2 µM [inhibitor, partial curve, poor fit]",–
CCc1nn2c(=O)cc(COC(=O)c3cccs3)nc2s1,–,inactive: -3.99%
COc1ccc2ccc3c(c2c1)N=C[C@]1(O3)N(C)c2ccccc2C1(C)C,"inconclusive: 35.5 µM [inhibitor, full curve]",–
O=C(N/N=C1\C/C(=N\NC(=O)c2ccncc2)c2ccccc21)c1ccncc1,"inconclusive: 4.47 µM [inhibitor, full curve]",–
CCCn1nc(NC(=O)c2cccs2)c2cc3ccccc3nc21,"inconclusive: 79.4 µM [inhibitor, partial curve, poor fit]",–
Nc1ccc(-c2nc3nc(N)nc(N)c3nc2-c2ccc(N)cc2)cc1,–,inactive: -35%
Cc1c(C)n(C)c2ccc(C(=O)NCCc3ccc(Cl)cc3)cc12,–,inactive: 0.229%
CC(=O)c1c(C)[nH]c(C(=O)OCC(=O)Nc2ccc3[nH]c(=O)[nH]c3c2)c1C,"inconclusive: 44.7 µM [inhibitor, partial curve, poor fit]",–
O=C(CSc1nc(-c2ccccc2)nc2c1Cc1ccccc1O2)Nc1ccc(C(=O)O)cc1,"inconclusive: 63.1 µM [inhibitor, partial curve, poor fit]",–
O=C(COC(=O)/C=C/c1ccco1)NCc1ccco1,"inconclusive: 56.2 µM [inhibitor, partial curve, poor fit]",–
N#CC1(NC(=O)COC(=O)c2cc(O)c3ccccc3c2O)CCCCC1,"inconclusive: 44.7 µM [inhibitor, partial curve]",–
CC1=CC(C)(C)N(S(=O)(=O)c2ccc(C)cc2)c2ccccc21,"inconclusive: 89.1 µM [inhibitor, single point]",–
